Measured values as given in PubChem BioAssay AID1963856 (Molecular Pharmacology Branch, DTP, NCI, 2024).
For part of its entries the source gives two or more results. Only these are listed. An entry can have further records. The values listed for one entry are repeats across runs, samples, wells, individuals or studies. Counts like (3×) count equal records among those shown.

Tested on: LG0567-F671-PDC KRAS tumor spheroid viability
Assay: Anticancer human tumor LG0567-F671-PDC patient-derived lung adenocarcinoma cell line growth inhibition [KRAS2]
Details: spheroids with HUVEC and MSC; for viability, T/C: stronger effect = lower value; for IC50: compound alone
Description: Multicellular complex tumor spheroid response to RAS pathway inhibitors in combination with a targeted agents in patient-derived cell lines with oncogenic KRAS variants from multiple cancer types
A high-throughput screen of multi-cell type tumor spheroids was designed to identify active combinations of targeted small molecules and KRAS pathway inhibitors. Complex spheroids include a stromal component modeled by human endothelial cells (HUVEC) and fibroblasts modeled by human mesenchymal stem cells (MSCs). The concentration ranges selected for each drug and investigational agent were based upon clinically achievable concentrations if the clinical Cmax of the agent was known.
Compounds. The drugs and investigational agents: BI-3406 (NSC825286), BAY-293 (NSC824723), batoprotafib (TNO155; NSC825523), sotorasib (AMG 510; NSC818433), MRTX1257 (NSC819558), elimusertib (BAY 1895344; NSC800525), molibresib (GSK525762; NSC774829), temuterkib (LY3214996; NSC803410), venetoclax (NSC766270), alisertib (NSC759677), olaparib (NSC753686), talazoparib (NSC767125), erdafitinib (NSC781556), ipatasertib (NSC767898), cabozantinib (NSC761068), nintedanib (NSC756659), abemaciclib (NSC768073), docetaxel (NSC628503), trametinib (NSC758246), and sapanisertib (NSC764658) were obtained from the National Cancer Institute (NCI) Developmental Therapeutics Program Chemical Repository. The FDA-approved anticancer drug set is available from the Developmental Therapeutics Program. […] The stock solutions were prepared in dimethyl sulfoxide (DMSO, Sigma-Aldrich, St. Louis, MO, cat. D2650) at 800-fold the tested concentration and stored at -70 degrees C prior to their use. All drugs and investigational agents were tested over a range starting from a high concentration at or near the clinical Cmax and decreasing in half-log increments. If the clinical Cmax for an agent had not been determined, the highest concentration tested was 10 microM.
Cell Culture. All cells were maintained in an incubator at 37 degrees C and 5% CO2 with 95% humidity. The PDC lines were cultured according to standard operating procedures established by the NCI PDMR (https://pdmr.cancer.gov/sops/default.htm). Briefly, all PDCs were thawed and cultured in Matrigel-coated flasks prepared with a working solution of 1X Ham's F-12 nutrient mix, without supplementation (Invitrogen, Waltham, MA, cat. 11765054), 100 U/mL penicillin-streptomycin (Invitrogen, cat. 15140122), and 2.5% Matrigel (Corning Inc., Corning, NY, cat. 354248) for the first three passages. All PDCs were cultured in complete DMEM/F-12 media containing advanced DMEM/F-12 (Invitrogen, cat. 12634028), 4.9% defined fetal bovine serum, heat inactivated (HyClone Laboratories Inc., Logan, UT, cat. SH30070.03HI), 389 ng/mL hydrocortisone (Sigma-Aldrich, cat. H4001), 9.7 ng/mL human EGF recombinant protein (Invitrogen, cat. PHG0313), 23.4 microg/mL adenine (Sigma-Aldrich, cat. A2786), 97.3 U/mL penicillin-streptomycin (Invitrogen, cat. 15140122), 1.9 mM L-glutamine (Invitrogen, cat. 25030081), and 9.7 microM Y-27632 dihydrochloride (Tocris Bioscience, Bristol, United Kingdom, cat. 1254). The PDCs were cultured in complete DMEM/F12 media without 9.7 microM Y-27632 dihydrochloride for at least two passages prior to the screen. The established cell line HOP-62 was cultured in RPMI 1640 medium, HEPES (Invitrogen, cat. 22400105) with 10% defined fetal bovine serum (HyClone Laboratories Inc., cat. SH30070.03) and 2 mM L-glutamine (Invitrogen, cat. 25030081). The pooled donor HUVEC were cultured in endothelial cell growth medium 2 (PromoCell, Heidelberg, Germany, cat. C-22011) and the hMSC were cultured in mesenchymal stem cell growth medium 2 (PromoCell, cat. C-28009). For all experiments, HUVEC and hMSC were used at passages </=5, while the malignant cell lines were used at passages </=15. […]
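Note: drug exposure lasted seven days after spheroids formed for three days.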
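Throughout, for viability, T/C: 100% = DMSO vehicle control viability.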

SMILES	viability, T/C (compound alone 0.1 µM)	viability, T/C (compound alone 1 µM)	viability, T/C (compound alone 3.16 µM)	IC50	further results
COc1cc2nc(C)nc(NC(C)c3cc(N)cc(C(F)(F)F)c3)c2cc1OC1CCOC1 (centres undefined)	82.7, 95.3, 85.2, 96.3, 81.5, 70.6, 70, 66.9, 76.3, 77.7, 81.1, 73.9, 83.3, 69.9, 70.2, 81.2, 77.6%	91.9, 89, 91.8, 69.6, 65.4, 60.2, 59.4, 57.3, 65.6, 71.1, 73.9, 60, 80.4, 74.1, 81.6, 69.9, 73.3%	68.5, 41.5, 66.9, 77.1, 58.2, 46.4, 69.4, 59.7, 79.7, 80.2, 80.4, 54.5, 77.4 (2×), 81.5, 56.5, 74.9%	–	viability, T/C (compound alone 10 µM): 74.7, 44.7, 93.9, 84.6, 53.1, 42.5, 62.4, 54.4, 84, 66.4, 72.1, 57.4, 77, 80.2, 63.7, 84.3, 76%
CC1OCC2(CCN(c3cnc(Sc4ccnc(N)c4Cl)c(N)n3)CC2)C1N (centres undefined)	–	106, 28.8, 29.9, 25.9, 25.4, 27.5, 28.6, 33.9, 31.3, 35.9, 31.8, 30.6, 27.4, 30.3, 29.7, 28.4, 30.5, 37.6%	–	–	IC50 (run of 07/12/2021): 137 nM, 1.6 µM, 130 nM, 152 nM, 222 nM, 160 nM; IC50 (run of 07/19/2021): < 100 nM, 112 nM, 150 nM, 110 nM
CC(=O)OC12COC1CC(O)C1(C)C(=O)C(O)C3=C(C)C(OC(=O)C(O)C(NC(=O)OC(C)(C)C)c4ccccc4)CC(O)(C(OC(=O)c4ccccc4)C21)C3(C)C (centres undefined)	–	–	–	10 nM and > 3.16 µM	–
COC(=O)c1ccc2c(C(=Nc3ccc(N(C)C(=O)CN4CCN(C)CC4)cc3)c3ccccc3)c(O)[nH]c2c1	–	–	–	–	viability, T/C (compound alone 0.0316 µM): 117, 96.6, 89.4, 93.2, 120%; viability, T/C (compound alone 0.316 µM): 78.8, 68.2, 97, 83.9, 79.7%
CN(C)C/C=C/C(=O)Nc1cc2c(Nc3ccc(F)c(Cl)c3)ncnc2cc1O[C@H]1CCOC1	–	–	–	–	viability, T/C (compound alone 0.00316 µM): 64, 72.9, 81.6, 81.5, 92.2%
COc1cc(Nc2ncc3c(n2)-c2ccc(Cl)cc2C(c2c(F)cccc2OC)=NC3)ccc1C(=O)O	66.8, 90.3, 80, 85.2, 92.7%	59.9, 88, 77.6, 82.5, 80.2%	–	6.04 µM, 9.45 µM, 9.09 µM, > 10 µM	–
C=CC(=O)N1CCN(c2nc(OCC3CCCN3C)nc3c2CCN(c2cccc4cccc(C)c24)C3)CC1CC#N (centres undefined)	–	–	24.6, 28.8, 33.6, 35, 32, 5.63, 17.2, 15.5, 10.2, 23.7, 34.8, 32.8, 31, 33.2, 36.3, 39.6%	–	viability, T/C (compound alone 0.316 µM): 33.6, 36.4, 23.2, 23.6, 31.8, 32.2, 23.1, 38.3, 42.3, 42.1, 36.7, 26, 88.7, 21.3, 27.7, 31.4, 25.1%
CC(C)n1nc(-c2ccc3oc(N)nc3c2)c2c(N)ncnc21	53.7, 61.3, 60.6, 66.5, 33.6%	–	–	> 100 nM and 5.66 nM	viability, T/C (compound alone 0.00316 µM): 67.3, 82.4 (2×), 85.5, 54.8%; viability, T/C (compound alone 0.01 µM): 62.3, 80.3, 76.6, 82.5, 49.3%; viability, T/C (compound alone 0.0316 µM): 55.6, 63.1, 71.4, 71.1, 39.6%
COc1cc2nccc(Oc3ccc(NC(=O)C4(C(=O)Nc5ccc(F)cc5)CC4)cc3)c2cc1OC	–	–	45.3, 44.5, 48.9, 132, 49.5%	–	viability, T/C (compound alone 10 µM): 95.5, 94.8, 95.8, 135, 110%
COc1cc(OC)cc(N(CCNC(C)C)c2ccc3ncc(-c4cnn(C)c4)nc3c2)c1	89.4, 94.9, 82.5, 109, 90.6%	91.5, 93.1, 94.6, 18.9, 87.5%	67.8, 83, 75.7, 25.2, 75.3%	9.19 µM, 7.88 µM, > 10 µM, 605 nM	viability, T/C (compound alone 0.0316 µM): 93.9, 92.8, 87, 111, 85.7%; viability, T/C (compound alone 10 µM): 48.6, 41.2, 54.2, 0.14, 52.1%
CCNC(=O)CC1N=C(c2ccc(Cl)cc2)c2cc(OC)ccc2-n2c(C)nnc21 (centres undefined)	–	64.8, 70.6, 63.8, 20.1, 53.2%	52.9, 51.3, 54.9, 14.1, 50.2%	9.42 µM, 6.15 µM, 5.46 µM, 551 nM, 2.06 µM	viability, T/C (compound alone 10 µM): 46.9, 48, 45.3, 4.55, 39.8%
CC1COCCN1c1cc(-c2ccnn2C)c2ccnc(-c3ccn[nH]3)c2n1 (centres undefined)	80, 78.5, 76.1, 53, 73.7%	63, 69.5, 68.4, 40.5, 66.9%	60.5, 65.8, 63.6, 16.9, 68.3%	> 3.16 µM and 256 nM	viability, T/C (compound alone 0.0316 µM): 94.2, 95.5, 97.8, 62.4, 82.2%
CC(C)NCC(C(=O)N1CCN(c2ncnc3c2C(C)CC3O)CC1)c1ccc(Cl)cc1 (centres undefined)	–	–	78, 85.4, 83.7, 20.2, 80.7%	–	–
CNCc1ccccc1-c1csc(C(C)Nc2nc(C)nc3cc(OC)c(OC)cc23)c1 (centres undefined)	83.3, 78.7, 71.7, 70.9, 85.9, 84.5, 74.3, 61, 82.1, 86.8, 76, 77.4, 73.2, 83.6 (2×), 84, 81.9%	86.8, 76, 74.4, 57.2, 81.5, 60.7, 53.2, 61.9, 66.5, 59.5, 69.6, 57, 65.9 (2×), 71.8, 78.2, 68.5%	66.9, 65.1, 74.1, 2.28, 3.94, 6.72, 0.26, 0.18, 0.54, 71.7, 72.8, 103, 56.4, 92.2, 99.9%	–	viability, T/C (compound alone 0.316 µM): 61.5, 65.7, 58.8, 51.7, 85.6, 67, 65.9, 66.5, 72.2, 64, 64.7, 69.2, 72.3, 81.2, 79.7 (2×), 75%; IC50 (run of 07/12/2021): 4.25, 4.14, 4.4, 1.16, 1.6, 1.24 µM
